# According to PubChem BioAssay AID686971 (National Center for Advancing Translational Sciences (NCATS), 2013):
# Screen size: about 360,000 compounds; about 7,500 (2.1%) were called active. Inconclusive means that the source gave no clear call. Such entries were picked first, then a sample of the others. Calls come from the whole dose curve; as a rule, active = well fitted cell-killing curve with a large enough effect; inconclusive = small, poorly fitted or top-dose-only effect, or effect the other way, or another doubt; inactive = no such curve, though single readings can be large or run the other way. Potencies of inconclusive entries are left out as doubtful fits.
# Assay: qHTS for induction of synthetic lethality in tumor cells producing 2HG: qHTS for the HT-1080-IDH1KD cell line;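 for activity, negative = toxicity: 0% = DMSO wells and -100% = cell-free medium wells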
# Settings: HT-1080 IDH1 knockdown viability, ATP luminescence, 48 h; activity, negative = toxicity: at 46.1 µM (top of the series) unless noted
# Procedure, shortened: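 HT-1080-IDH1KD cells (IDH1 knocked down), 750/well in RPMI with 5% FBS, treated with compound 48 h at 37 degrees C. Viability by CellTiter-Glo luminescence, normalised to DMSO and no-cell wells; concentration-response curves classed.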
# Potency is the fitted concentration of half-maximal effect; tags give direction and shape of the fitted curve.
Compound,"activity, negative = toxicity",Potency
Cc1cccc(NC(=O)Nc2cccc(C)n2)n1,inactive: -0.325%,–
COc1ccc(CCNC(=O)C(=O)NCc2ccc(C)cc2)cc1OC,inactive: -2.66%,–
CC1(C(=O)Nc2ccc(Cl)cc2)Cc2c(-c3ccc(C(N)=O)cc3)ccnc2O1 (stereo not given),–,"inconclusive [cytotoxic, single point]"
O=C(Nc1cccc(S(=O)(=O)Nc2ccccc2Cl)c1)c1ccc(Cl)nc1,inactive: -8.24%,–
CCN(CC)C(=O)c1ccc(COc2ccc(Cl)c(C)c2)o1,–,"inconclusive [cytotoxic, partial curve, poor fit]"
CS(=O)(=O)N1CCCC(C(=O)Nc2ccccc2)C1 (stereo not given),inactive: -10%,–
COc1ccc(-n2c(SCc3nnc(-c4ccccc4)o3)nnc2-c2ccccc2)cc1,inactive: -17.1%,–
COC(=O)Nc1ccc(S(=O)(=O)N2CCCc3ccccc32)cc1,–,active: 1.41 µM
O=C(NNc1ccnc2cc(Cl)ccc12)C1CCCCC1,–,"inconclusive [cytotoxic, full curve, poor fit]"
CC(C)Cc1ccc(-c2cc3nc(NCCCn4ccnc4)ccn3n2)cc1,–,"inconclusive [cytotoxic, single point]"
COc1ccc(CN(C(=S)Nc2ccccc2)C2CC(=O)N(c3ccc(F)cc3)C2=O)cc1 (stereo not given),–,"inconclusive [cytotoxic, single point]"
CC(=O)c1ccc(N2CCN(C(=S)Nc3ccc(Oc4ccccc4)cc3)CC2)cc1,–,"inconclusive [cytotoxic, partial curve]"
COc1cccc(C(=O)N/N=C(\C)CC(=O)Nc2ccc(N(C)C)cc2)c1,inactive: -23.3%,–
O=C(Nc1ccc(F)cc1)C(CCc1ccccc1)N1CCN(c2ccncc2)CC1 (stereo not given),–,"inconclusive [cytotoxic, single point]"
NS(=O)(=O)c1ccc(N2N=C(c3ccccc3)CC2c2ccc(Br)cc2)cc1 (stereo not given),–,"inconclusive [cytotoxic, single point]"
CCc1ccccc1N(CC(=O)N1CCc2ccccc2C1)S(C)(=O)=O,inactive: 9.95%,–
CCN(CC)C(=O)c1c2c(nc3ccccc13)-c1ccccc1CC2,–,"inconclusive [cytotoxic, single point]"
CC(=O)OCC(=O)C1(O)CCC2C3CC(F)C4=CC(=O)CCC4(C)C3C(=O)CC21C (stereo not given),–,"inconclusive [rising, full curve, poor fit]"
CCc1cccc(C)c1N=Cc1c(O)c2ccccc2oc1=O,–,"inconclusive [cytotoxic, single point]"
Cc1cc(=O)oc2cc(Oc3ccc([N+](=O)[O-])cc3[N+](=O)[O-])ccc12,–,"inconclusive [cytotoxic, single point]"
COc1cc2c(cc1OC)C(C)N(C(=O)c1cc3c(s1)-c1ccccc1OC3)CC2 (stereo not given),–,"inconclusive [cytotoxic, single point]"
COc1ccc(CN2CCC(C(=O)NC(c3ccc4c(c3)OCO4)c3ccccn3)CC2)cc1 (stereo not given),inactive: -14.7%,–
NC(Cc1ccc(C(F)(F)F)cc1)c1csc(NC(=O)Nc2ccccc2Cl)n1 (stereo not given),–,"inconclusive [cytotoxic, single point]"

Compound,"activity, negative = toxicity",Potency
Cn1cc(C(C[N+](=O)[O-])c2ccccc2)c2ccccc21 (stereo not given),–,"inconclusive [cytotoxic, single point]"
Nc1nc(Br)c2c(F)cccc2c1-c1ccc(F)cc1,–,"inconclusive [cytotoxic, partial curve]"
COC(=O)[C@]12CCCCC=C1N(CCC1=CCCCC1)C(=O)[C@H](CC(=O)NCC13CC4CC(CC(C4)C1)C3)C2,–,"inconclusive [cytotoxic, single point]"
O=C(Nc1ccc2c(c1)OCO2)C(=O)c1c[nH]c2ccccc12,–,"inconclusive [cytotoxic, full curve, poor fit]"
CCOC(=O)[C@]12CCCC=C1N(Cc1ccc3c(c1)OCO3)C(=O)[C@H](CC(=O)NCCCCc1ccccc1)C2,–,active: 11.6 µM
CC[n+]1c(/C=C2\C=C(C)CC(C)(C)C2)sc2ccccc21,–,"inconclusive [cytotoxic, single point]"
COCCCNC(=S)NCCNc1nc2cc(C)cc(C)c2cc1C#N,inactive: -13.8%,–
NC(=O)C1CCN(C(=O)COc2ccc(S(=O)(=O)NC3CCCC3)cc2)CC1,inactive: 11.1%,–
COc1cc(-c2c(C#N)c(N)nc3c2CCCC3)ccc1O,inactive: -9.04%,–
CCc1nnc(NC(=O)c2oc3ccc(Br)cc3c2C)s1,inactive: 21.4%,–
COc1cccc(-c2sc3ccc(OC)cc3c2-c2ccc(OCCN3CCCC3)cc2)c1,–,"inconclusive [cytotoxic, single point]"
COc1c(S(=O)(=O)N2CCCCC2)ccc2c(S(=O)(=O)N3CCCCC3)cccc12,inactive: 5.62%,–
COc1ccc(-c2cc(-c3n[nH]c(=S)n3-c3ccccc3Cl)[nH]n2)cc1,inactive: 0%,–
COc1ccc(N(CC(=O)N/N=C(\C)c2ccccc2)S(=O)(=O)c2ccccc2)cc1,inactive: -0.0619%,–
COc1cccc(NC(=O)CN2C(=O)NC3(CCCC3)C2=O)c1,inactive: 1.75%,–
CCOc1ccccc1C1c2[nH]c3ccccc3c2C[C@H]2C(=O)N(C3CC3)CC(=O)N12 (stereo not given in full),inactive: -1.28%,–
CCC(C)Sc1cccc(-c2nc3ccc(Cl)cn3c2NCc2ccccc2)c1 (stereo not given),–,"inconclusive [cytotoxic, partial curve]"
CCCCn1cnc2c(Sc3c([N+](=O)[O-])ncn3C)nc(N)nc21,–,"inconclusive [cytotoxic, partial curve]"
O=C(Cc1ccsc1)NNC(=O)c1ccccc1O,–,"inconclusive [cytotoxic, single point]"
CCOC(=O)/C(=N/Nc1ccccc1)c1csc(Nc2ccccc2)n1,–,"inconclusive [cytotoxic, single point]"
Cc1ccc(C(=O)N/C(=C\c2ccc([N+](=O)[O-])cc2)C(=O)NCCc2ccccc2)cc1,–,active: 11.2 µM
Cn1nnnc1SCCNCc1ccccc1OCc1ccc(Cl)cc1,–,"inconclusive [cytotoxic, single point]"
